# Data reported in the supplement of paper PMC12217912.
# The list shows a part of the results. The full chains were built here from the parent and the listed change. Values near 0.05 are background.
# B1: TEV protease; numbered along this chain (parent)
# chain: MGESLFKGPRDYNPISSSICHLTNESDGHTTSLYGIGFGPFIITNKHLFRRNNGTLVVQSLHGVFKVKDTTTLQQHLVDGRDMIIIRMPKDFPPFPQKLKFREPQREERICLVTTNFQTKSMSSMVSDTSCTFPSGDGIFWKHWIQTKDGQCGSPLVSTRDGFIVGIHSASNFTNTNNYFTSVPKNFMELLTNQEAQQWVSGWRLNADSVLWGGHKVFMVKPEEPFQPVKEATQL
# Variants of: B1
# Assay: raw area under fraction-flipped curve 0-4 h after induction (AUC4h, not background-subtracted), DNA-recorder readout of cleavage of the substrate (dimensionless); higher = more cleavage of the substrate by the protease variant
# Settings: temperature: 34 °C; time window: 0-4 h after rhamnose induction
# Experimental: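 In vivo DNA recorder in E. coli TOP10(DE3) ΔrhaA at 34 °C. Each TEVp single-site mutant (parent TEVp 0) is paired with a single-site variant of the 7-mer TEVs (canonical ENLYFQ|S). The substrate sits between flexible linkers in a Bxb1-sfGFP-TEVs-SsrA fusion, so cleavage stabilises Bxb1 and speeds flipping of a recombination array, read by NGS. The value is the raw area under the fraction-flipped curve over 0-4 h after rhamnose induction (AUC4h), with ≥20 reads per time point. It is not background-subtracted; inactive controls average about 0.047.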
# 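Also: Bxb1 expression induced with 0.2% (w/v) L-rhamnose at OD600 near 0.5, cultures sampled hourly, flipped fraction per protease–substrate barcode pair counted by paired-end Illumina sequencing.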
Variant,area with substrate ENLYFQC,area with substrate ENLYFQE,area with substrate ENLYFQH,area with substrate ENLYFQL,area with substrate ENLYFQM,area with substrate ENLYFQP,area with substrate ENLYFQR,area with substrate ENLYFQS,area with substrate ENLYFQT,area with substrate ENLYFQV,area with substrate ENLYFQW,area with substrate ENLYFQD,area with substrate ENLYFQI,area with substrate ENLYFQK,area with substrate ENLYFQN,area with substrate ENLYFQQ,area with substrate ENLYFQY,area with substrate ENLYFQG,area with substrate ENLYFQF
MGESLFKGPRDYNPISSSICHLTNESDGHTTSLYGIGFGPFIITNKHLFRRNNGYLVVQSLHGVFKVKDTTTLQQHLVDGRDMIIIRMPKDFPPFPQKLKFREPQREERICLVTTNFQTKSMSSMVSDTSCTFPSGDGIFWKHWIQTKDGQCGSPLVSTRDGFIVGIHSASNFTNTNNYFTSVPKNFMELLTNQEAQQWVSGWRLNADSVLWGGHKVFMVKPEEPFQPVKEATQL [T55Y],0.107,0.0573,0.079,0.0545,0.0811,0.0559,0.0696,0.0846,0.0471,0.0541,0.067,–,–,–,–,–,–,–,–
MGESLFKGPRDYNPISSSICHLTNESDRHTTSLYGIGFGPFIITNKHLFRRNNGTLVVQSLHGVFKVKDTTTLQQHLVDGRDMIIIRMPKDFPPFPQKLKFREPQREERICLVTTNFQTKSMSSMVSDTSCTFPSGDGIFWKHWIQTKDGQCGSPLVSTRDGFIVGIHSASNFTNTNNYFTSVPKNFMELLTNQEAQQWVSGWRLNADSVLWGGHKVFMVKPEEPFQPVKEATQL [G28R],0.0859,–,–,–,0.0754,–,0.0788,0.0869,0.0666,0.0579,0.0678,0.0652,0.0712,0.0547,0.0388,0.076,0.0786,–,–
MGESLFKGPRDYNPISSSICHLTNESDGHTTSLYGIGFGPFIITNKHLFRRNNGTLVVQSLHGVFIVKDTTTLQQHLVDGRDMIIIRMPKDFPPFPQKLKFREPQREERICLVTTNFQTKSMSSMVSDTSCTFPSGDGIFWKHWIQTKDGQCGSPLVSTRDGFIVGIHSASNFTNTNNYFTSVPKNFMELLTNQEAQQWVSGWRLNADSVLWGGHKVFMVKPEEPFQPVKEATQL [K66I],0.145,–,–,–,–,–,–,0.109,–,0.0568,0.0897,–,–,–,–,–,0.0795,–,–
MGESLFKGPRDYNPISSSICHLTNESDGHTTSLYGIGFGPFIITNKHLFRRNNGTLVVQSLHGVFKVKDTTTLQQHLVDGRDMIIIRMPKDFPPFPQKLKFREPQREERICLVTTNFQTKSMSSMVSDTSCTFPSGDGIFWKHWIQTKDGQCGSPLVSTRDGFIVGIHSASNFTNTNNYFASVPKNFMELLTNQEAQQWVSGWRLNADSVLWGGHKVFMVKPEEPFQPVKEATQL [T181A],0.0939,–,–,0.0601,0.0871,0.0604,0.0625,0.113,0.069,0.0384,0.0743,0.11,0.0664,0.0679,0.0663,0.0815,0.0968,0.102,–
MGESLFKGPRDYNPISSSICHLTNESDGHTTSLYGIGFGPFIITNKHLFRRNNGTLVVQSLHGVFKVKDTTTLQQHLVDGRDMIIIRMPKDFPPFPQKLKFREPQREERICLVTTNFQTKSMSDMVSDTSCTFPSGDGIFWKHWIQTKDGQCGSPLVSTRDGFIVGIHSASNFTNTNNYFTSVPKNFMELLTNQEAQQWVSGWRLNADSVLWGGHKVFMVKPEEPFQPVKEATQL [S124D],0.112,–,0.0768,0.0683,0.108,0.0661,0.0535,0.0989,0.0678,–,0.0462,0.0792,0.0646,–,0.0728,–,0.0717,0.106,0.0829
MGESLFKGPRDYNPISSSICHLTNESDGHTTSLYGIGFGPFIITNLHLFRRNNGTLVVQSLHGVFKVKDTTTLQQHLVDGRDMIIIRMPKDFPPFPQKLKFREPQREERICLVTTNFQTKSMSSMVSDTSCTFPSGDGIFWKHWIQTKDGQCGSPLVSTRDGFIVGIHSASNFTNTNNYFTSVPKNFMELLTNQEAQQWVSGWRLNADSVLWGGHKVFMVKPEEPFQPVKEATQL [K46L],0.104,0.0629,0.0755,0.0635,0.0545,0.0511,0.0541,0.0835,0.0633,0.0645,0.0576,0.0602,0.0554,0.065,0.0673,–,0.0587,0.108,0.0619
MGESLFKGPRDYNPISSSICHLTNESDGHTTSLYGIGFGPFIITNKHLFRRNNGTLVVQSLHGVFKVKDTTTLQQHLVDGRDMIIIRMPKDFPPFPQKLKFREPQREERICLVTTNFQTKSMSSMVSDTSCTFPSGDGIFWKHWIQTKDGQCGSPLVSTRDGFIVGIHSASNFTTTNNYFTSVPKNFMELLTNQEAQQWVSGWRLNADSVLWGGHKVFMVKPEEPFQPVKEATQL [N175T],0.0759,–,0.0552,–,–,–,0.0679,0.0678,0.0733,–,–,0.073,–,–,–,0.0589,–,0.0723,–
MGESLFKGPRDYNPISSSICHLTNESDGHTTSLYGIGFGPFIITNKHLFRRNNGTLVVQQLHGVFKVKDTTTLQQHLVDGRDMIIIRMPKDFPPFPQKLKFREPQREERICLVTTNFQTKSMSSMVSDTSCTFPSGDGIFWKHWIQTKDGQCGSPLVSTRDGFIVGIHSASNFTNTNNYFTSVPKNFMELLTNQEAQQWVSGWRLNADSVLWGGHKVFMVKPEEPFQPVKEATQL [S60Q],0.103,–,0.0751,0.0649,0.104,–,0.0726,0.0877,–,–,0.0629,0.0699,0.0581,0.0751,0.0682,–,–,–,–
MGESLFKGPRDYNPISSSICHLTNESDGHTTSLYGIGFGPFIITNKHLFRRNNGTLVVQSLHGVFKVKDTTTLQQHLVDGRDMIIIRMPKDFPPFPQKLKFREPQREERICLVTTNFQTKSMSSMVSDTSCTFPSGDGIFWKHWIQTKDGQCGSPLVSTRDGFIVGIHSASNFTNTNNYFTSVPKNFMELLTNQEAQQDVSGWRLNADSVLWGGHKVFMVKPEEPFQPVKEATQL [W199D],0.0628,0.0661,0.0523,0.0543,–,–,–,0.0648,0.0556,–,0.0688,0.0682,–,0.0529,0.0762,–,–,0.0565,–
